From BigSolDB 2.1

N[C@@H](Cc1ccc(O)cc1)C(=O)O
solubility (mole fraction)
Conditions	283.15 K	288.15 K	293.15 K	298.15 K	303.15 K	308.15 K	313.15 K	318.15 K	323.15 K	328.15 K
in DMF	0.000477	0.000486	0.000522	0.000528	0.000619	0.000645	0.000665	0.000745	0.000767	0.000855
in acetonitrile	2.98e-06	3.4e-06	4.52e-06	6.13e-06	7.71e-06	1.08e-05	1.41e-05	1.68e-05	2.26e-05	2.88e-05
in ethyl acetate	0.00206	0.00239	0.00258	0.00285	0.0034	0.00357	0.00394	0.00473	0.005	0.00557
in ethylene glycol	3.1e-05	3.61e-05	4.87e-05	6.24e-05	9.14e-05	0.000113	0.00014	0.000194	0.000239	0.000325
in isopropanol	5.54e-06	6.1e-06	8.97e-06	1.05e-05	1.24e-05	1.69e-05	1.96e-05	2.24e-05	2.93e-05	3.55e-05
in n-butanol	9.95e-07	1.55e-06	1.7e-06	2.09e-06	2.87e-06	3.19e-06	4.32e-06	5.18e-06	6.55e-06	8.19e-06
